Test results taken from PubChem BioAssay AID488969 (Vanderbilt High Throughput Screening Facility, 2010).
The full ranking holds about 110,000 compounds; the median of “z-score” is about -0.1, and the highest 2% start at about 2. Some of the results follow. Calls of active or inactive are those of the source.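 How the source made its calls: active means z-score in the third read window above 3 or below -3; inactive means the rest.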

Target: Metabotropic glutamate receptor 8 (Rattus norvegicus) (UniProt P70579)
Assay: rat mGluR8 modulators via GIRK flux, primary screen, cell-based, thallium flux, HTS (AID 488969)
Details: HEK293 rat mGluR8, GIRK (G protein-gated inwardly rectifying potassium channel) thallium flux, FluoZin2; at 10 µM; stronger effect = higher value; submaximal glutamate (EC20) added with thallium

Sequence of UniProt P70579 (P70579 whole entry, looked up): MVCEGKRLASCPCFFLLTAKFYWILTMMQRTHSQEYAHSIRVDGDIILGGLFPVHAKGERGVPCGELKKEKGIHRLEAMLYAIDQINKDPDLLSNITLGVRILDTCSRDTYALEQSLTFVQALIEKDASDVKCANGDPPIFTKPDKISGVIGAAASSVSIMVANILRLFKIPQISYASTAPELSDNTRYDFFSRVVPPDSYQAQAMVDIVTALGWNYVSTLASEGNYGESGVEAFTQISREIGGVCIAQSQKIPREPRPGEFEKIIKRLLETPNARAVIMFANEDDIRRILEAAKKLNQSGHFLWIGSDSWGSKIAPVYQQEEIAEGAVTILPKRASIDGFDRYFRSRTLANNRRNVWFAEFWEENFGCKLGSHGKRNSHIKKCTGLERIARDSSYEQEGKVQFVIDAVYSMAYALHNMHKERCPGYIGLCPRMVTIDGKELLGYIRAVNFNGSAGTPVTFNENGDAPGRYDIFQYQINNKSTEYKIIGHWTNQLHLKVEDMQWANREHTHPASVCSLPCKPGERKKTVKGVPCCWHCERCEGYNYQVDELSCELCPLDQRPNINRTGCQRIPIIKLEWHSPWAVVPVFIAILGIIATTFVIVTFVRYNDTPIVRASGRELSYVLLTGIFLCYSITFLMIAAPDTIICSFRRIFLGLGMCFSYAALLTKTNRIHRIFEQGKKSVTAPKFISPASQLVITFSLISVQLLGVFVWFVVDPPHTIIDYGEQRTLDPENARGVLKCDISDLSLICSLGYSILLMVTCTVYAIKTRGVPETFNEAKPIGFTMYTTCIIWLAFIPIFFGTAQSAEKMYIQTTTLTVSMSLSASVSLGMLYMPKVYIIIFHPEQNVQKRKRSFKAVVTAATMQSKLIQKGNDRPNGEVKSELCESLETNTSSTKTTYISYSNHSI

SMILES	z-score
Cc1ccc(OCc2ccoc2C(=O)O)cc1C	-0.755
Cc1ccc(CN2CCCNC2=O)cc1	0.0901
Cc1cccc(NC(=S)NCC(c2cccnc2)N(C)C)c1C (stereo unspecified)	0.024
Cc1cc(C(=O)Cn2nnc(-c3ccc(Cl)cc3)n2)c(C)n1CC1CCCO1 (stereo unspecified)	-0.156
CSc1cccc(NC(=O)C2CCN(S(C)(=O)=O)CC2)c1	-0.0146
CSc1ccc(C#N)cc1NC(=O)c1cccc(Cl)c1	-0.253
CCOc1ccccc1C(=O)Nc1cc(Cl)ccc1O	-1.29
CCc1cc(C(=O)OC)c(NC(=O)CC2NCCNC2=O)s1 (stereo unspecified)	-0.198
N#Cc1c2nc3ccccc3nc2n2cc(NC(=O)c3ccc(F)cc3)ccc12	0.0599
COc1ccc(NC(=O)c2cc(F)cc(F)c2)cc1Cl	-0.465
CNC(=O)c1ccccc1-c1ccccc1	-0.224
C/C(CC1CC(COCCC(C)C)OC1=O)=N\NC(N)=S (stereo unspecified)	-0.19
O=C(CSc1nc2ccccc2o1)N1CCN(c2ccccc2)CC1	-0.672
O=C(NN1CCOCC1)c1ccc(Cl)cc1	-0.16
N#C/C(=C\c1cc([N+](=O)[O-])c(N2CCOCC2)cc1N1CCOCC1)c1nc2ccccc2[nH]1	-0.756
Cc1nn(Cc2ccccc2)c(C)c1C(=O)NCCN1C(=O)S/C(=C\c2ccc(F)cc2)C1=O	0.0396
[O-][n+]1cccc2ncc3cscc3c21	0.0114
CCCC(=O)c1c[nH]c(C(=O)NCc2ccco2)c1	0.568
Cc1ccc(OC(=O)c2cccc(C(=O)Oc3ccc(C)cc3)n2)cc1	1.1
COc1ccc(-c2nnc(SCC(=O)NCCc3ccccc3)o2)cc1	0.026
CC(C)(C)n1ncc(Oc2ccccc2[N+](=O)[O-])c(Cl)c1=O	-0.0954
CCC(=O)c1c[nH]c(C(=O)NCc2ccco2)c1	0.111
Cc1cc(C)c(NS(=O)(=O)c2ccc(NC(=O)/C=C/C(=O)O)cc2)c(C)c1	-0.0619

SMILES	z-score
O=C(c1ccc(Cl)cc1)c1ccc(CN2C(=O)c3ccccc3C2=O)o1	-0.216
CCOc1ccc(-n2c(=O)c3sccc3n(CC(=O)NCc3ccco3)c2=O)cc1	-0.769
CCOC(=O)N1CCC2(CC1)C(C#N)=C(N)Oc1c2sc2nc(C)cc(C)c12	-0.369
O=C(O)c1nc(N2CCCC2)ncc1Cl	-0.485
O=C(Nc1ccc2c(c1)OCCO2)c1cccc(S(=O)(=O)N2CCCCC2)c1	-0.2
COc1ccccc1C1(CC(=O)O)CCOC(C(C)C)C1 (stereo unspecified)	0.0693
CCCCNC(=O)OCCNC(=O)NC	0.433
CC1(C)CC(=O)c2c(noc2-c2ccccc2)C1	active: 3.63
COc1ccc(N(CC(=O)NC2CCCC2)S(=O)(=O)c2c(C)[nH]c(=O)[nH]c2=O)cc1	-0.0214
CCOc1cc(CNc2ccc3c(c2)OCCO3)cc(Br)c1OCC(N)=O	-0.258
CC/C(=N\n1nnnc1Nc1ccccc1)c1ccccc1	-0.359
Cc1cccc(-n2c(-c3csc4ccccc34)n[nH]c2=S)c1	2.62
CCCN(CCC)S(=O)(=O)c1ccc(NC(=O)COc2ccccc2)cc1	-1.33
O=S(=O)(CCc1nc2ccccc2o1)c1ccc2ccccc2c1	0.276
COc1ccc(/C=N/Nc2ccc(C(F)(F)F)cc2[N+](=O)[O-])cc1	0.00171
CN(CC(=O)NC1CCCCCC1)S(=O)(=O)c1ccc2c(c1)n(C)c(=O)c(=O)n2C	0.109
COc1ccc(Cn2c(O)c(C=Nc3ccc(C)cc3)c3ccccc3c2=O)cc1	0.472
COC(=O)CCS(=O)(=O)c1ccc(Cl)c(Cl)c1	-0.294
CC(C)Sc1cc(N2CCCC2)nc(-c2ccc(F)cc2)n1	-0.241
CC1CCCC(C)N1C(=O)Cc1ccccc1 (stereo unspecified)	0.237
COCCCNC(=O)CCn1c(=O)c2ccccc2n(CC(=O)Nc2cc(Cl)ccc2C)c1=O	-0.0525
COC(=O)c1cccc(N(C(=O)c2cnccn2)C(C(=O)NC2CCCCC2)c2cn(C)nc2C)c1 (stereo unspecified)	-0.0869
C/C(=N\NC(=O)c1ccncc1)C12CC3CC(CC(C3)C1)C2	-0.319

SMILES	z-score
Cc1c(NC(=O)c2cc(-n3cnnc3)ccc2Cl)cccc1-c1nc2ccccc2o1	-0.115
Cc1occc1-c1nc(-c2ccncc2)no1	0.281
COc1ccc(N(CC(=O)NN=C2CCCC2)S(=O)(=O)c2ccccc2)cc1	-0.177
Cc1nc(Cl)c(C(=O)NCCC(C)C)c(C)c1[N+](=O)[O-]	-0.105
O=C(C1CCN(S(=O)(=O)c2cccnc2)CC1)N1CCCCC1	0.487
Cc1c(C(N)=O)sc2ncn(CC(=O)OC(C)C)c(=O)c12	0.619
Cn1c(=O)c(-c2ccccc2)nc2ccccc21	-0.27
COC(=O)CSc1nc(N)c(NC(=O)c2ccc(OC)c(OC)c2)c(=O)[nH]1	0.0346
O=C(O)c1ccccc1NS(=O)(=O)c1ccccc1C(F)(F)F	-2.23
O=C(CSc1nnc(Cc2cccs2)n1Cc1ccco1)Nc1ccc(Br)cc1	-0.431
COC(=O)c1ccccc1NC(=O)NCc1ccc2c(c1)OCO2	-0.588
O=C(Nc1ccc2c(c1)CCC2)c1cccc(F)c1	-0.533
O=C(NCC1CCCO1)c1onc(CSc2ccccc2)c1C(=O)O (stereo unspecified)	-0.2
COc1ccccc1CCNC(=O)/C(=C/c1cccnc1)NC(=O)c1ccccc1	0.407
C=CCn1c(=O)c2ccccc2n2c(SCC(=O)Nc3sc(C)c(CC)c3C(=O)OCC)nnc12	-0.851
CC1=NN(c2ccc(C)c(C)c2)C(=O)/C1=C/c1ccc2c(c1)n(C)c(=O)n2C	0.144
CCOC(=O)c1c(C)nn(Cc2ccccc2)c1N	-0.611
COc1c(F)c(F)c(C(=O)Nc2cccc(Cl)c2N2CCOCC2)c(F)c1F	0.0118
CCc1nc(OCc2ccco2)c2sc3nc4c(cc3c2n1)COC(C)(C)C4	-0.916
Cc1ccc(NS(=O)(=O)c2ccc(NC(=O)[C@@H]3CCCC[C@@H]3C(=O)O)cc2)c(C)c1	0.0653
O=C(CSc1nc2c(cnn2-c2ccc(F)cc2)c(=O)[nH]1)N1CCCCCC1	0.587
Cc1ccc(S(=O)(=O)N(C)C)cc1NS(=O)(=O)c1ccc(Cl)s1	-1.55
C=CCNC(=O)c1c(Cl)nc(C)c([N+](=O)[O-])c1C	-0.112

SMILES	z-score
C=CCOc1ccc(/C(O)=C2/C(=O)C(=O)N(CCN3CCOCC3)C2c2ccc(C)cc2)cc1 (stereo unspecified)	-0.208
Cc1cccc(OCc2nnc(N)s2)c1C	-0.275
Cc1ccc(C(=O)N/C(=C\c2cccnc2)c2nc3ccccc3[nH]2)cc1	-0.117
c1ccc(CNc2ncnc3c2cnn3-c2ccccc2)cc1	-0.0703
COc1ccc(/C=N/Nc2nc(=O)[nH]nc2C)cc1[N+](=O)[O-]	-0.356
CCCCN(CC)C(=O)c1ccccc1Oc1ccccc1	-0.648
Cc1cccc(NC(=O)C2CCN(S(=O)(=O)c3cccc4cccnc34)CC2)n1	0.642
COc1ccccc1S(=O)(=O)Cc1ccc(C(=O)N2CCN(c3cccc(Cl)c3)CC2)o1	-0.158
Cc1ccc2c(c1)sc[n+]2Cc1ccccc1	0.0925
O=[N+]([O-])c1cc(C(F)(F)F)ccc1Sc1ccccn1	-0.191
OC(CNC1CCCc2ccccc21)COc1c(Cl)cccc1Cl (stereo unspecified)	1.97
C=CCSc1nnc(NC(=O)CSc2ccccn2)s1	-0.421
Cc1ccc(S(=O)(=O)N2CCCCC2)cc1NC(=O)COC(=O)C1CC2C=CC1C2 (stereo unspecified)	2.38
O=S(=O)(NC1CC2CCC1C2)c1ccc(Br)s1 (stereo unspecified)	0.869
O=C(Oc1nsnc1N1CCOCC1)N1CCOCC1	0.156
O=C(CCC(=O)Nc1nnc(C2CCCCC2)s1)NCC1CCCO1 (stereo unspecified)	0.0959
CCOc1cc(CNc2ccccc2SC)ccc1O	0.763
N#CC1=C2Nc3ccccc3N2C(=O)NC1(c1ccccc1)C(F)(F)F (stereo unspecified)	0.00994
CC(C)(C)C(=O)C(Oc1cccc2nonc12)n1cncn1 (stereo unspecified)	-0.0119
Cc1cc(NS(=O)(=O)c2ccc(Nc3nc(-c4sc(NC(=O)c5ccccc5)nc4C)cs3)cc2)no1	-0.843
CCCCNC(=O)COC(=O)c1ccc(NS(=O)(=O)c2ccc3c(c2)OCCO3)cc1	-0.0527
COc1ccccc1Oc1ccc2c(c1)C(=O)N(c1ccccc1)C2=O	0.472
CC(=O)c1c(C)[nH]c(C(=O)CSc2nnc(CN3CCCCCC3=O)n2-c2ccccn2)c1C	-0.0799

SMILES	z-score
Cc1nnc2n(-c3ccccc3)c(=O)c3c4c(sc3n12)CC(C)CC4 (stereo unspecified)	-1.3
O=C(NC12CC3CC(CC(C3)C1)C2)C1CC(=O)N(c2ccccc2)C1 (stereo unspecified)	-0.0926
O=C1C(Cc2ccccc2)S/C(=N/N=C/c2ccco2)N1c1ccccc1 (stereo unspecified)	-0.0921
Brc1ccc(CN2CCN(c3ccccn3)CC2)s1	-0.141
CC(C)[C@H](NS(=O)(=O)c1ccccc1)C(=O)OCC(=O)Nc1ccc2c(c1)OCO2	-0.334
Cc1ccc(OCCCOc2cccc3cccnc23)cc1C	0.00993
CCn1c(SCC(=O)Nc2sc3c(c2C#N)CCCC3)nnc1-c1ccncc1	-0.633
O/N=C1/CCCCC1c1ccccn1 (stereo unspecified)	0.238
CCNS(=O)(=O)c1ccc(S(=O)(=O)N(Cc2ccccn2)C2CCCCC2)cc1	-0.174
CCn1ccc(C(=O)Oc2ccc(C(C)C)cc2)n1	0.321
CCN(CC)CCNC(=O)c1c(C)oc2cc(Br)c(OC)cc12	-0.44
CN(C)S(=O)(=O)c1ccc(-c2ccccc2)cc1	-1.4
CCOc1ccc(C(=O)CN2CCN(S(=O)(=O)c3ccc(OC)cc3)CC2)cc1	-0.414
O=C(CCCN1C(=O)c2ccccc2C1=O)NCCN1C(=O)S/C(=C\c2cccs2)C1=O	0.331
CCCOc1cccc(C(=O)N(Cc2cccs2)C2CCS(=O)(=O)C2)c1 (stereo unspecified)	-0.815
CCOC(=O)c1ccc(N2C(=O)CC(N3CCC(C(N)=O)(N4CCCCC4)CC3)C2=O)cc1 (stereo unspecified)	-0.0206
CS(=O)(=O)N(CC(=O)Nc1cccc(Cl)c1)c1ccccc1Cl	-0.0609
Cc1cccc(N2CCN(C(=O)c3ccncc3)CC2)c1C	-0.0566
O=C(CSc1nc2ccccc2o1)Nc1ccccc1	0.0178
